# Test results from PubChem BioAssay AID1508624 (National Center for Advancing Translational Sciences (NCATS), 2021).
# Out of some 48,000 compounds screened, about 120 (0.25%) were called active. Inconclusive results (about 4%) are left out. The call rests on the fitted dose curve; in most records, active means well fitted activation curve with a large enough effect; inconclusive means small, poorly fitted or top-dose-only effect, or another doubt; inactive means no such curve, though single readings can be large or run the other way. This is one part of the list.
# Assay: Primary qHTS for Identification of Small Molecule Activators of Huntingtin-Antisense Promoter Activity; further: nearly all actives have a fitted effect of over 55% in size
# Details: HEK293 HTT-AS promoter firefly luciferase reporter, 24 h; series mostly up to 57.5 µM; activity change, positive = activation: at the top concentration
# Outline: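 HEK293 Fluc reporter, 2,500 cells/well, 24 h pre-culture; cpds up to 57.5 uM final, 24 h 37 degrees C; Dual-Glo, 10 min RT; normalized vehicle = 0%, zero RLU = -100%.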
row,Compound,"activity change, positive = activation"
1,COc1ccc(-c2noc(-c3ccc(N4CCN(c5ccccc5OC)CC4)c([N+](=O)[O-])c3)n2)cc1,inactive: -4.3%
2,CCCN1CCN(CC2=C(C(=O)OCC)C(c3ccc(OC(C)C)cc3)NC(=O)N2)CC1 (configuration not stated),inactive: -7.26%
3,CSc1nc2c(sc3ccccc32)c(=O)n1Cc1ccc(C)cc1,inactive: -1.6%
4,CCn1c(=O)c(=O)n(CC)c2cc(N3CCCCC3)c(NC(=O)c3ccccc3OC)cc21,inactive: -9.28%
5,CCOc1ccc(-c2nc(CSCC(=O)NCCc3ccc(OCC)c(OCC)c3)c(C)o2)cc1,inactive: -48.5%
6,COc1ccccc1-c1c(C)nn2c(N3CCN(c4ccccc4)CC3)cc(C)nc12,inactive: -11.7%
7,COc1ccc(OC)c(CNC(=O)CN2N=C(c3ccc(Cl)cc3)CCC2=O)c1,inactive: -3%
8,O=C(NCCc1ccc(Cl)cc1)C(=O)NCC(c1cccs1)S(=O)(=O)c1cccs1 (configuration not stated),inactive: -41.9%
9,O=C(Nc1ccc2nc(SCC(=O)N3CCOCC3)sc2c1)c1ccc(Br)cc1,inactive: -19.8%
10,COc1ccc(C(=O)Nc2cc(-c3nc4ccccc4s3)ccc2OC)cc1,inactive: -3.25%
11,CCC(C)NC(=O)CSc1c2c(nc3cc(Cl)ccc13)CCCC2 (configuration not stated),inactive: -5.74%
12,C=Cc1ccc(Cn2c(C(=O)O)c(CNC3CCCCC3)c3ccc(OC)cc32)cc1,inactive: -22.7%
13,CCCOC1(C(F)(F)F)NC(=O)N(c2cccc(Cl)c2)C1=O (configuration not stated),inactive: -22.7%
14,COc1cccc(CNC(=O)C(=O)NCC(c2ccc3c(c2)OCO3)N2CCOCC2)c1 (configuration not stated),inactive: -22.7%
15,COC(=O)c1ccc(NC(=O)CCc2c(C)nc3c(c(C)nn3C(C)(C)C)c2C)cc1,inactive: -38%
16,Nc1ncnc2c1ncn2[C@@H]1O[C@H](CO)[C@@H](O)[C@H]1O,inactive: -13.3%
17,CCN(C(=O)CSc1nc(-c2ccccc2)no1)c1ccccc1,inactive: -11%
18,C=C1C(=C/C=C2\CCC[C@]3(C)[C@@H]([C@H](C)/C=C/[C@@H](O)C4CC4)CC[C@@H]23)C[C@@H](O)C[C@@H]1O,inactive: -22.8%
19,Cc1ccc2occ(-c3cc(-c4ccc(F)cc4)nc4c3COc3ccc(F)cc3-4)c(=O)c2c1,inactive: -6.67%
20,Cc1ccccc1CSc1nc(-c2cccc(F)c2)nc2c1Cc1c(CO)cnc(C)c1O2,inactive: -8.63%
21,COc1ccc(OC)c(CNC(=O)c2nn(C)c3c2CS(=O)(=O)c2ccccc2-3)c1,inactive: -7.07%
22,CN(C)C(=O)c1ccc2c(c1)N(CC(=O)NCc1ccccc1Cl)C(=O)C1CCCCN21 (configuration not stated),inactive: -2.69%
23,COc1ccc(N2CCN(C(=O)CN3C(=O)COc4ccc(S(=O)(=O)N5CCC(C)CC5)cc43)CC2)cc1,inactive: -21.6%

row,Compound,"activity change, positive = activation"
1,COc1ccc(N2CC(NC(=O)C3CCCCC3)CC2=O)cc1OC (configuration not stated),inactive: -0.711%
2,O=C(c1cnc2c(c1)COc1ccc(Cl)cc1-2)c1ccccc1O,inactive: -15.3%
3,CCOc1ccc(NC(=O)CCCOc2cc(=O)n(C)c3ccccc23)cc1,inactive: -4.69%
4,Clc1ccccc1CSc1nnc(C2CCNCC2)o1,inactive: -2.75%
5,COc1ccc(NC(=O)c2oc3ccccc3c2NC(=O)Cc2coc3ccc(C)cc23)cc1,inactive: -1.2%
6,CCOc1cc(CNC(=O)c2ccc3nc(C(C)C)oc3c2)cc(OCC)c1OCC,inactive: -11%
7,CCCCN(CC)C(=O)c1nn(-c2ccc(OC)cc2)c(=O)c2c1c1ccccc1n2C,inactive: -4.68%
8,O=C(Cn1c(=O)n(-c2ccccc2)c(=O)c2ccc(C(=O)NCc3ccc4c(c3)OCO4)cc21)Nc1ccc(Br)cc1,inactive: -33.7%
9,Cc1ccc(C)c(N2CCN(C(=O)c3cc4c(=O)oc5ccccc5c4s3)CC2)c1,inactive: -6.26%
10,CCS(=O)(=O)c1oc(-c2ccc(F)cc2)nc1S(=O)(=O)c1ccccc1,inactive: -94%
11,O=C(c1ccc(Nc2nccc(-c3cc4ccccc4s3)n2)cc1)N1CCC(N2CCCC2)CC1,inactive: -37%
12,O=C(CSc1nc2ncccc2o1)Nc1cccc(C(F)(F)F)c1,inactive: 3.61%
13,Cc1nc(SCC(=O)Nc2nsc(-c3ccc(C(C)(C)C)cc3)n2)c2c3c(sc2n1)CCCC3,inactive: -29.2%
14,COc1ccc(N2CCN(S(=O)(=O)CCNC(=O)Cc3ccc(OC)c(OC)c3)CC2)cc1,inactive: -5.49%
15,O=C(CN1C(=O)C2(SCC(=O)N2c2cccc(Cl)c2)c2ccccc21)NCc1ccccc1 (configuration not stated),inactive: -16.1%
16,COc1ccc(-c2cn3nc(N4CCC(C(=O)Nc5cc(Cl)ccc5C)CC4)sc3n2)cc1,inactive: 15.5%
17,CC(C)(C)c1ccc(OCC(=O)NCC2(N3CCOCC3)CCCCC2)cc1,inactive: -45.2%
18,COc1ccccc1-c1cc2nc(C)c(CCC(=O)NCCc3cccc(C)c3)c(C)n2n1,inactive: -59.9%
19,O=C(CCCCCn1c(=O)c2sccc2n(CC(=O)Nc2cc(C(F)(F)F)ccc2Cl)c1=O)NCc1ccccc1Cl,inactive: -22.9%
20,CCc1cccc(-n2c(=O)c3cccnc3n2CC(=O)NCc2ccc(C)cc2)c1,inactive: -6.87%
21,Cc1ccc(NC(=O)Cn2cnc3onc(-c4ccc(F)cc4)c3c2=O)c(Cl)c1,inactive: -17.3%
22,CC(=O)Nc1ccc(Nc2ncnc3c2cnn3C)cc1,inactive: 25.9%
23,CCOc1ccccc1CNC(=O)c1oc2c(c1C)-c1[nH]ncc1CC2,inactive: 0.667%

row,Compound,"activity change, positive = activation"
1,CC1CCN(c2ncnc3c2c(-c2ccccc2)cn3-c2ccc(Br)cc2)CC1,inactive: -5%
2,CCCN(CCC)C(=O)Cn1c(=O)n(CCCCCC(=O)NCc2ccc3c(c2)OCO3)c(=O)c2sccc21,inactive: -9.74%
3,C[C@@H](NC(=O)c1ncnc(N)c1Cl)c1ncc(C(=O)Nc2cc(C(F)(F)F)c(Cl)cn2)s1,inactive: -16.6%
4,Cc1ccc(C)n1-c1nnc(N2CCCC(C(=O)Nc3ccccc3Br)C2)s1 (configuration not stated),inactive: -2.05%
5,CCOC(=O)c1c(NC(=O)c2cc(OC)c(OC)c(OC)c2)sc2c1CCCC2,inactive: 4.62%
6,COc1ccccc1-c1noc(CCCC(=O)Nc2cccc(C(F)(F)F)c2)n1,inactive: -20.4%
7,CN(C)C(=S)SC(=S)N(C)C,inactive: -59.8%
8,CC(C)N(C(=O)Cn1cc(S(=O)(=O)Cc2ccc(Br)cc2)c2ccccc21)C(C)C,inactive: -18.7%
9,O=C(c1ccc(F)cc1)N1CCC(c2nc3ccccc3s2)CC1,"inactive: -12.2% [at 11.5 µM, percent change from vehicle, -100% = no light]"
10,Cc1ccc(CNC(=O)c2cc(-c3ccc(C)cc3)nc3n[nH]c(-c4cccc([N+](=O)[O-])c4)c23)cc1,inactive: 1.36%
11,CC1CCN(S(=O)(=O)c2ccc3c(c2)N(CC(=O)NCCCN2CCCCC2)C(=O)CS3)CC1,inactive: -1.6%
12,CCOc1ccc(S(=O)(=O)NCCc2c(C)[nH]c3c(Cl)cccc23)cc1C,inactive: -17.1%
13,Cc1c(C(=O)Nc2ccc(F)c(C(F)(F)F)c2)sc2nc(-c3ccccc3)cn12,inactive: -34.5%
14,Cc1ccc(Cl)cc1N1CCN(C(=O)CSc2cc(=O)n(C)c3ccccc23)CC1,inactive: -45.8%
15,Cc1cccc(CC(=O)Nc2ccc3nc(N4CCC(C)CC4)cc(C)c3c2)c1,inactive: -13.4%
16,CC1=C(C(=O)Nc2cc(Cl)ccc2C)C(c2sccc2C)n2ncnc2N1 (configuration not stated),inactive: -8.41%
17,Cc1cc(C)c(NC(=O)Cn2c(=O)n(CCC(=O)NCc3ccccc3Cl)c(=O)c3sccc32)c(C)c1,inactive: 3.35%
18,O=C(Nc1nc2ccc(F)cc2s1)c1nc(S(=O)(=O)Cc2ccccc2F)ncc1Cl,inactive: -43.8%
19,COc1ccc(C(=O)Nc2ccc3nc(SCC(=O)N(C)c4ccccc4)sc3c2)cc1,inactive: -47.8%
20,CSc1ncc(C(=O)NCc2ccc(C)cc2)c(C)n1,inactive: -15.1%
21,CC(C)(C)c1ccc2c(c1)N(CC(=O)NCCCN1CCN(c3ccccc3F)CC1)C(=O)CO2,inactive: -26.7%
22,CC1(C)CCC(C)(C)c2cc(NC(=O)c3ccc(C(=O)O)cc3)ccc21,inactive
23,CCCCn1c(=O)nc2n(-c3ccc(Br)cc3)c3ccccc3cc-2c1=O,inactive: -7.17%

row,Compound,"activity change, positive = activation"
1,CC1CCCN(CCCNC(=O)Cn2ncc3c([nH]c4ccccc43)c2=O)C1 (configuration not stated),inactive: -11.2%
2,CCOC(=O)Cc1ccc(NC(=O)N(Cc2ccc(CC)cc2)Cc2cn[nH]c2-c2ccc(OC)cc2)cc1,inactive: -29%
3,COc1cccc(C(=O)Nc2nc(-c3ccc(Br)cc3)ns2)c1,inactive: -38.1%
4,Cc1nc2ccc(S(=O)(=O)NCC(=O)Nc3ccc(F)cc3F)cc2s1,inactive: -9.79%
5,Cc1ccc(S(=O)(=O)N2CCN(Cc3nc4ccc(C)cc4o3)CC2)c(C)c1,inactive: -27.5%
6,N[C@@H](Cc1cc(I)c(Oc2cc(I)c(O)c(I)c2)c(I)c1)C(=O)O,inactive
7,CCc1ccc(OCCn2c(C3CC(=O)N(Cc4ccc(F)cc4)C3)nc3ccccc32)cc1 (configuration not stated),inactive: -49.4%
8,CC(C)(C)C(=O)Nc1ccccc1C(=O)OCc1cc(=O)n2ccsc2n1,inactive: 7.66%
9,Cc1ccc(-n2c(SCC(=O)N3CCCc4ccccc43)nc3c([nH]c4ccccc43)c2=O)cc1,inactive: 9.74%
10,CCOC(=O)c1c(C)[nH]c(C)c1S(=O)(=O)N(C)CC(=O)Nc1ccc(C)cc1Br,inactive: -2.46%
11,COCCCNC(=O)CSC1=Nc2ccccc2C2=NC(CCC(=O)NCc3ccc(OC)cc3)C(=O)N12 (configuration not stated),inactive: 0%
12,Cc1oc(-c2ccc(Cl)cc2)nc1CN1CCCC(C(=O)NCc2ccccc2)C1 (configuration not stated),inactive: -39.6%
13,Cc1ccc(-n2c(COCC(=O)O)nc3cccnc32)cc1,inactive: -10%
14,Cc1ccc(Cl)cc1N1CCN(C(=O)c2cc3c(=O)oc4ccccc4c3s2)CC1,inactive: -20.9%
15,CCN1CCN(C(c2ccccc2Cl)c2c(O)cc(C)n(CCOC)c2=O)CC1 (configuration not stated),inactive: -22.8%
16,CCCNC(=O)C1CCC(Cn2c(=O)c3sccc3n(CC(=O)NCc3cccc(OC)c3OC)c2=O)CC1 (configuration not stated),inactive: -21.2%
17,Cc1cc(C)c2c(NC(=O)c3ccccc3)c(C(=O)Nc3ccc(F)cc3)sc2n1,inactive: -2.37%
18,Cc1ccc(C)c(N2CCN(CCCNC(=O)c3ccc4nc(CCc5ccccc5)oc4c3)CC2)c1,inactive: -0.506%
19,COc1cccc(N2CC(NC(=O)c3cc(Cl)ccc3OC)CC2=O)c1 (configuration not stated),inactive: -16.9%
20,COc1ccc(OC)c(NS(=O)(=O)c2ccc(N3CCCCS3(=O)=O)cc2)c1,inactive: -7.92%
21,Cc1ccc(C(=O)N/C(=C\c2ccc(Cl)cc2)C(=O)NC2CCCCC2)cc1,inactive: -16.7%
22,O=C(O)C(O)Cc1ccc(O)c(O)c1 (configuration not stated),inactive: -7.17%
23,CC(=O)c1cccc(NC(=O)CN(c2cc(C)cc(C)c2)S(=O)(=O)c2c(C)noc2C)c1,inactive: -33.2%
